Laboratory results: paper PMC4336329 (PLoS ONE, 2015)
In all, about 310,000 compounds went through this assay and about 14,000 (4.5%) showed an effect of 50% or more. Effects have a minus sign here. The list shows a part of the results.

molecular target: human ether-à-go-go-related gene (hERG) potassium channel (human, UniProt Q12809); assay: primary screen, population patch clamp on CHO cells stably expressing hERG
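Note: peak tail current of the secondary pulse compared with the same well before compound.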

human ether-à-go-go-related gene (hERG) potassium channel, sequence (Q12809 whole entry, looked up): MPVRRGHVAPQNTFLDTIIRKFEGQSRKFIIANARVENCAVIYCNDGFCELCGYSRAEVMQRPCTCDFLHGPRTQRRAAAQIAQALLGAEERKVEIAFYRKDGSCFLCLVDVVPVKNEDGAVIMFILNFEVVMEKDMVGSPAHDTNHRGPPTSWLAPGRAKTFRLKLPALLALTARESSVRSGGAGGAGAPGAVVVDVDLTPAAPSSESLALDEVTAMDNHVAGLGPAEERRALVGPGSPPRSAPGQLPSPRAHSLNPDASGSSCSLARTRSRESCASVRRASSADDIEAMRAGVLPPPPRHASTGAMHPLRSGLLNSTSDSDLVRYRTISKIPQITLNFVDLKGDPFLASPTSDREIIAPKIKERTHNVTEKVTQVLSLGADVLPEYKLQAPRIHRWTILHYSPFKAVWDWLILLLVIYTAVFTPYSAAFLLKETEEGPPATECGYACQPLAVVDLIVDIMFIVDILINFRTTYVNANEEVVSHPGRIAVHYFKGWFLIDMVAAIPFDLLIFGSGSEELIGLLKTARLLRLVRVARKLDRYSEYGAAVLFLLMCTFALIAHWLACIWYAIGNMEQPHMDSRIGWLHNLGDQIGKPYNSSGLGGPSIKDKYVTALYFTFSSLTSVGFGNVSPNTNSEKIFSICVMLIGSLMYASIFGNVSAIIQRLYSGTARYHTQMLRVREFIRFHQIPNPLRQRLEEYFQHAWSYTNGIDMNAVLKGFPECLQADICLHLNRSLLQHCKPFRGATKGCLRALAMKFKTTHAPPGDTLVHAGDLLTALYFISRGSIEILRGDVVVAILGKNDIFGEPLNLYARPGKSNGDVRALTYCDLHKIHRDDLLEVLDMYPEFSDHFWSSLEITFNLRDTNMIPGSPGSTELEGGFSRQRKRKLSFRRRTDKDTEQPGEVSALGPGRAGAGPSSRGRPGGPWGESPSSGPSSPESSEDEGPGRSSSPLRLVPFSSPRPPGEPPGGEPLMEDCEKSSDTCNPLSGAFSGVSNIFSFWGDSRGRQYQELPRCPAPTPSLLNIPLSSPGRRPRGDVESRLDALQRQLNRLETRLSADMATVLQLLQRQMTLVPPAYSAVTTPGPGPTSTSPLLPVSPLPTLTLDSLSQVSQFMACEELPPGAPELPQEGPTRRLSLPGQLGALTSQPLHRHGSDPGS

SMILES | hERG current change (%, negative = inhibition) at 10uM [%]
CCN(CC)CCNC(=O)C1c2ccccc2C(=O)N(CCOC)C1c1ccc(F)cc1 (centres unmarked) | 12.2
COC(=O)CCC(=O)Oc1ccc(OC(=O)CCC(=O)OC)cc1 | 10.5
N#Cc1ccc(NCC(=O)N2CCN(S(=O)(=O)c3ccccc3)CC2)cc1 | -70.2
COc1ccc(CCC(=O)N/N=C(\C)c2ccc3c(c2)OCO3)cc1 | 9.45
C=C(C)CSCc1nc2ccccc2[nH]1 | 11.1
O=C(C=C1CCN(c2ncc(C(F)(F)F)cc2Cl)CC1)NNC(=O)Nc1ccccc1 | -4.13
COC(=O)c1cc(Cl)c(N)cc1OC | -8.14
CN(Cc1nccn1C)C(=O)CC1C(=O)NCCN1Cc1ccc(F)cc1Cl (centres unmarked) | -68.9
Cn1cccc1C(=O)NC(=O)COC(=O)CNS(=O)(=O)c1ccc(Br)cc1 | -3.81
COc1ccc(CCNC(=O)CSc2nnnn2-c2ccccc2OC)cc1OC | -0.607
CCOc1ccccc1NC(=O)c1cc(=O)c2ccccc2o1 | 20.8
CCCCn1c(Nc2ccccc2)nc2ccccc21 | 24.7
Cn1cc(CN2CCN(Cc3ccc4c(c3)OCO4)CC2)c(-c2ccccc2F)n1 | -20.1
O=C(NCc1ccccc1)Nc1cccn(Cc2cccc(F)c2)c1=O | 4.7
O=C(O)c1ccccc1-c1nc2ccccc2[nH]1 | 19.6
Cc1ccnc(NC(=O)CCC(=O)N(CC(=O)NCc2ccccc2)Cc2ccc(F)cc2)c1 | -21.8
CCCCCCCC(=O)NC1=NC(=O)C(C)(C)S1 | 8.81
CCOc1ccc(C(=O)COC(=O)c2nn(CC)c(=O)c3ccccc23)cc1 | -16.8
CC(=O)Nc1ccc(NC(=O)CSc2nnc(C3CC3)n2-c2ccccc2)cc1 | 17.7
CCCc1nn(C)c2c(=O)[nH]c(-c3ccccc3OCC)nc12 | 7.87
COc1ccc(CN(C)C(=O)c2cccc(S(=O)(=O)N3CCN(c4ccccc4)CC3)c2)c(OC)c1OC | -3.12
CC(C)(C)c1ccc(OC(=O)Nc2ccc(O)c(C(=O)O)c2)cc1 | 18.2
Cc1nnc(SCC(=O)Nc2cccnc2Cl)s1 | -2.23

SMILES | hERG current change (%, negative = inhibition) at 10uM [%]
CCOc1ccc(C(=O)OC(C)CN2CCN(C)CC2)cc1.Cl (centres unmarked) | -2.58
CC(=O)Nc1ccc(C)c([N+](=O)[O-])c1 | 12.2
COc1ccc(CCNC(=O)COC(=O)COc2ccc(Cl)cc2)cc1OC | 7.05
NC(=O)COC(=O)c1ccc(S(=O)(=O)N2CCCCCC2)cc1 | 0.851
Cc1ccc2nc(NC(=O)c3ccccc3F)sc2c1 | 26.1
C[C@]12CCC(OC(=O)CCC(=O)O)CC1=CCC1C2CC[C@]2(C)C(=O)CCC12 (some centres unmarked) | 11.5
CC(=O)Nc1ccc(C(=O)NCC2(N3CCCCC3)CCCCC2)cc1 | -14.2
Cc1ccc(NC(=O)c2nc[nH]c2C(=O)NCCCCCNC(=O)OC(C)(C)C)cc1 | -15.2
COC(=O)c1cc(S(=O)(=O)N2CCN(c3cccc(C)c3C)CC2)c[nH]1 | -0.92
Cn1c(CNC(=O)C(Cc2ccccc2)NC(=O)c2ccccc2)cc(=O)n(C)c1=O (centres unmarked) | 3.28
CCc1ccc(Nc2nnc(SCC(=O)Nc3cccnc3Cl)s2)cc1 | -7.72
CCCCCCc1c(C)[nH]c2nc3ccccc3n2c1=O | 20.7
Cn1c(=O)c2c(ncn2CC(=O)N/N=C/c2c[nH]c3ccccc23)n(C)c1=O | 12.7
Nc1c(C(=O)Nc2ccccc2Cl)nnn1-c1ccc2c(c1)OCCO2 | 21
CCOC(=O)c1c(CSc2ccccc2)n(C)c2cc(Br)c(O)c(CN(C)C)c12 | -68.5
Br.CN=c1sc(C(=O)Nc2cccc(Cl)c2)cc(=O)n1C | 9.39
O=C1NC(=O)N(Cc2ccco2)C(=O)/C1=C/c1cccn1CCOc1ccccc1Cl | -1.23
Cc1cc(=O)[nH]c(SC/C=C/c2ccccc2)n1 | 14.3
CC(C)(C)OC(=O)N[C@@H](Cc1ccccc1)c1nnc(S(=O)(=O)Cc2cccc(F)c2)o1 | 18.8
CC(=O)c1cccc(NC(=O)c2cc(-n3cnnc3)ccc2Cl)c1 | -1.42
CCc1nnc(NC(=O)CSc2nnnn2C)s1 | 3.04
Cc1onc(-c2ccccc2Cl)c1C(=O)OCC(=O)Nc1cccc(S(=O)(=O)N2CCOCC2)c1 | -5.62
Oc1ccc(/C=N/NP(=S)(c2ccccc2)c2ccccc2)c(O)c1O | 3.92

SMILES | hERG current change (%, negative = inhibition) at 10uM [%]
O=C(O)c1cccc(C(=O)c2cccc(C(=O)O)c2)c1 | 9.19
O=C(NNC(=S)Nc1ccc(Br)cc1)c1ccccc1 | 14.3
CCOc1ccc2nc(NC(=O)CS(=O)(=O)c3ccccc3)sc2c1 | 4.38
COc1ccc(NC(=O)CN(C)C(=O)CN2C(=O)C3CCCCC3C2=O)cc1 (centres unmarked) | -11.9
Cc1ccccc1NC(=O)C(c1ccccc1)C1CCCC1 (centres unmarked) | 6.52
CCc1nc(SCC(=O)Nc2nnc(CC)s2)c2c(=O)n(C)c(=O)n(C)c2n1 | 4.23
CC1CCCCN1C(=O)CSc1nnc(Cc2ccccc2)n1C (centres unmarked) | 21.7
O=C(NCCCN1CCCC1)c1cc(Sc2ccc(F)cc2)nc2ccccc12 | -74.1
CC(C)(C)c1ccc(OCC(=O)NCc2ccco2)c(Br)c1 | -18.3
CCOc1ccc2c(c1)C(N(CCN1CCOCC1)C(=O)Nc1ccccc1)CC(C)(C)O2 (centres unmarked) | -19.1
Cc1ccc(-c2nnn(CC(=O)NC3CC4CCC3C4)n2)cc1 (centres unmarked) | 1.64
CC(C)[C@H](NC(=O)c1ccccc1)C(=O)OCC(=O)NCCC1=CCCCC1 | -29.5
Cn1cc(S(=O)(=O)N2CCc3ccccc32)cc1C(=O)NC(C)(C)C | -1.54
CC1=C(C(=O)OCC2CCCCC2)C(c2ccc(F)cc2)NC(=O)N1 (centres unmarked) | 15.6
COc1ccc(C2=[N+](C)CCn3cccc32)c(OC)c1.[I-] | 9.68
Cc1cc(Nc2ccc(N3CCOCC3)cc2)c2cccc(C)c2n1.Cl | -56.6
COc1ccc(Cl)cc1NC(=O)CS(=O)(=O)c1cccc2nsnc12 | -2.44
O=C1N(Nc2ccccc2)C(c2ccc(Br)cc2)C12CCCCC2 (centres unmarked) | 21
COCCN(C(=O)CSc1nc(-c2ccccc2)cn1N)c1c(N)n(Cc2ccccc2)c(=O)[nH]c1=O | -9.07
CCN1CCCc2cc(CN(CCN3CCOCC3)C(=S)Nc3ccc(OC)c(OC)c3)ccc21 | 13
Cc1cccc(NNC(=O)c2c(F)cccc2Cl)c1 | 11.3
Cc1cc(C(=O)N/N=C/c2cccn2C)n[nH]1 | -18.9
CC(C)OC(=O)c1nnc(Cc2ccc(F)cc2)o1 | -3.8

SMILES | hERG current change (%, negative = inhibition) at 10uM [%]
COc1cccc(OC)c1NC(=O)C1CCCN1C(=O)NCc1ccccc1 (centres unmarked) | 2.56
COc1ccc(OC(=O)Cc2cccc3ccccc23)cc1 | 13.5
CC1CCCCC12NC(=O)N(CC(=O)OCC(=O)c1ccc(OC(F)F)cc1OC(F)F)C2=O (centres unmarked) | -47
Cc1cccc(/C=N\Nc2cn[nH]c(=O)c2Cl)c1 | 14.2
O=C(Nc1cc(C(F)(F)F)ccc1N1CCOCC1)c1cccc(F)c1 | -13.3
CCN(CC)C(=O)CN(C#N)c1nc(OC)nc(N(C)C)n1 | 7.99
CC(=O)c1ccc(N2CCN(CC(=O)NCc3ccccc3)CC2)cc1 | -44.3
CC(=O)Nc1cccc(OCCCNC(=O)C2CCC2)c1 | 14.7
CCOC(=O)C1=C(c2ccccc2)NC(SCC(=O)Nc2cccc(C)c2)=C(C#N)C1c1ccco1 (centres unmarked) | -5.87
O=C(CSc1ccc(Cl)cc1)Nc1ccc(N2CCN(C(=O)c3ccc(Cl)cc3)CC2)cc1 | 0.824
CCOC(=O)C1CCCN(C(=O)C2CCN(S(=O)(=O)CC)CC2)C1 (centres unmarked) | 5.04
CCn1ncc(/C=N\NC(=O)Cc2ccc([N+](=O)[O-])cc2)c1C | -19.2
C/C(=N\NC(=O)c1ccccc1O)C1C(=O)c2ccccc2C1=O | -0.25
O=C(CCCn1c(=S)[nH]c2cc3c(cc2c1=O)OCO3)N1CCN(c2ccccc2)CC1 | -14
O[C@@H]1CCCN2CCc3c([nH]c4ccccc34)[C@H]12 | 10.9
CC(C)CCN1CCN(Cc2cccs2)CC1CCO (centres unmarked) | -10.7
COc1ccc(CNC(=O)CCC(=O)Nc2cccnc2)cc1 | 15.8
Cc1cccc(C)c1NC(=O)CCCN1C(=O)C(c2ccccc2)Oc2cccnc21 (centres unmarked) | 17.3
O=C(NCCCN1CCOCC1)c1ccc(Cl)s1 | -13.5
Cc1ccccc1N1CCN(S(=O)(=O)CC23CCC(CC2=O)C3(C)C)CC1 (centres unmarked) | 11.8
